The other results are listed elsewhere or left out. Sequences were assembled here from the parent chain. Values near 0.05 are background.
B1: TEV protease; numbered along this chain (parent)
chain: MGESLFKGPRDYNPISSSICHLTNESDGHTTSLYGIGFGPFIITNKHLFRRNNGTLVVQSLHGVFKVKDTTTLQQHLVDGRDMIIIRMPKDFPPFPQKLKFREPQREERICLVTTNFQTKSMSSMVSDTSCTFPSGDGIFWKHWIQTKDGQCGSPLVSTRDGFIVGIHSASNFTNTNNYFTSVPKNFMELLTNQEAQQWVSGWRLNADSVLWGGHKVFMVKPEEPFQPVKEATQL

Variants of: B1
Assay: raw area under fraction-flipped curve 0-4 h after induction (AUC4h, not background-subtracted), DNA-recorder readout of cleavage of the substrate (dimensionless); higher = more cleavage of the substrate by the protease variant
Conditions: temperature: 34 °C; time window: 0-4 h after rhamnose induction
Description: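 In vivo DNA recorder in E. coli TOP10(DE3) ΔrhaA at 34 °C. Each TEVp single-site mutant (parent TEVp 0) is paired with a single-site variant of the 7-mer TEVs (canonical ENLYFQ|S). The substrate sits between flexible linkers in a Bxb1-sfGFP-TEVs-SsrA fusion, so cleavage stabilises Bxb1 and speeds flipping of a recombination array, read by NGS. The value is the raw area under the fraction-flipped curve over 0-4 h after rhamnose induction (AUC4h), with ≥20 reads per time point. It is not background-subtracted; inactive controls average about 0.047.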
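Also: Bxb1 expression induced with 0.2% (w/v) L-rhamnose at OD600 near 0.5, cultures sampled hourly, flipped fraction per protease–substrate barcode pair counted by paired-end Illumina sequencing.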

Row | Variant | area with substrate ENAYFQS | area with substrate ENCYFQS | area with substrate ENFYFQS | area with substrate ENHYFQS | area with substrate ENKYFQS | area with substrate ENNYFQS | area with substrate ENQYFQS | area with substrate ENRYFQS | area with substrate ENSYFQS | area with substrate ENVYFQS | area with substrate ENWYFQS | area with substrate ENYYFQS | area with substrate ENDYFQS | area with substrate ENEYFQS | area with substrate ENGYFQS | area with substrate ENMYFQS | area with substrate ENPYFQS | area with substrate ENTYFQS | area with substrate ENIYFQS
1 | MGESLFKGPPDYNPISSSICHLTNESDGHTTSLYGIGFGPFIITNKHLFRRNNGTLVVQSLHGVFKVKDTTTLQQHLVDGRDMIIIRMPKDFPPFPQKLKFREPQREERICLVTTNFQTKSMSSMVSDTSCTFPSGDGIFWKHWIQTKDGQCGSPLVSTRDGFIVGIHSASNFTNTNNYFTSVPKNFMELLTNQEAQQWVSGWRLNADSVLWGGHKVFMVKPEEPFQPVKEATQL [R10P] | 0.0632 | 0.0804 | 0.0589 | 0.0671 | 0.0662 | 0.0616 | 0.0637 | 0.0517 | 0.101 | 0.0843 | 0.0441 | 0.0484 | – | – | – | – | – | – | –
2 | MGESLFKGPVDYNPISSSICHLTNESDGHTTSLYGIGFGPFIITNKHLFRRNNGTLVVQSLHGVFKVKDTTTLQQHLVDGRDMIIIRMPKDFPPFPQKLKFREPQREERICLVTTNFQTKSMSSMVSDTSCTFPSGDGIFWKHWIQTKDGQCGSPLVSTRDGFIVGIHSASNFTNTNNYFTSVPKNFMELLTNQEAQQWVSGWRLNADSVLWGGHKVFMVKPEEPFQPVKEATQL [R10V] | 0.0614 | 0.0638 | 0.0464 | 0.0552 | – | – | 0.0541 | 0.0559 | 0.0538 | 0.07 | – | – | 0.0643 | 0.06 | 0.0689 | 0.0784 | 0.0553 | 0.0916 | –
3 | MGESLFKGPRDYGPISSSICHLTNESDGHTTSLYGIGFGPFIITNKHLFRRNNGTLVVQSLHGVFKVKDTTTLQQHLVDGRDMIIIRMPKDFPPFPQKLKFREPQREERICLVTTNFQTKSMSSMVSDTSCTFPSGDGIFWKHWIQTKDGQCGSPLVSTRDGFIVGIHSASNFTNTNNYFTSVPKNFMELLTNQEAQQWVSGWRLNADSVLWGGHKVFMVKPEEPFQPVKEATQL [N13G] | 0.0547 | 0.0639 | 0.0614 | – | – | 0.0677 | 0.0638 | 0.0694 | 0.0621 | 0.0741 | 0.0353 | 0.0508 | 0.0683 | 0.0623 | 0.0612 | – | 0.059 | 0.0667 | 0.0785
4 | MGESLFKGPRDYKPISSSICHLTNESDGHTTSLYGIGFGPFIITNKHLFRRNNGTLVVQSLHGVFKVKDTTTLQQHLVDGRDMIIIRMPKDFPPFPQKLKFREPQREERICLVTTNFQTKSMSSMVSDTSCTFPSGDGIFWKHWIQTKDGQCGSPLVSTRDGFIVGIHSASNFTNTNNYFTSVPKNFMELLTNQEAQQWVSGWRLNADSVLWGGHKVFMVKPEEPFQPVKEATQL [N13K] | 0.064 | 0.078 | 0.0573 | 0.0563 | 0.0616 | 0.0515 | 0.0667 | 0.0614 | 0.0662 | 0.062 | – | 0.0642 | 0.0595 | 0.066 | 0.0672 | 0.0756 | 0.0623 | 0.052 | 0.0825
5 | MGESLFKGPRDYRPISSSICHLTNESDGHTTSLYGIGFGPFIITNKHLFRRNNGTLVVQSLHGVFKVKDTTTLQQHLVDGRDMIIIRMPKDFPPFPQKLKFREPQREERICLVTTNFQTKSMSSMVSDTSCTFPSGDGIFWKHWIQTKDGQCGSPLVSTRDGFIVGIHSASNFTNTNNYFTSVPKNFMELLTNQEAQQWVSGWRLNADSVLWGGHKVFMVKPEEPFQPVKEATQL [N13R] | 0.0637 | 0.073 | 0.0622 | 0.0705 | – | 0.0599 | 0.0639 | – | 0.0666 | 0.0639 | 0.0511 | 0.067 | 0.0535 | 0.0637 | 0.0648 | – | 0.0536 | 0.0653 | 0.0952
6 | MGESLFKGPRDHNPISSSICHLTNESDGHTTSLYGIGFGPFIITNKHLFRRNNGTLVVQSLHGVFKVKDTTTLQQHLVDGRDMIIIRMPKDFPPFPQKLKFREPQREERICLVTTNFQTKSMSSMVSDTSCTFPSGDGIFWKHWIQTKDGQCGSPLVSTRDGFIVGIHSASNFTNTNNYFTSVPKNFMELLTNQEAQQWVSGWRLNADSVLWGGHKVFMVKPEEPFQPVKEATQL [Y12H] | 0.0535 | 0.0691 | 0.0671 | – | 0.0724 | 0.0568 | 0.0562 | – | 0.0639 | – | – | 0.0637 | 0.0476 | 0.0606 | 0.0631 | 0.074 | – | 0.0711 | –
7 | MGESLFKGPRDKNPISSSICHLTNESDGHTTSLYGIGFGPFIITNKHLFRRNNGTLVVQSLHGVFKVKDTTTLQQHLVDGRDMIIIRMPKDFPPFPQKLKFREPQREERICLVTTNFQTKSMSSMVSDTSCTFPSGDGIFWKHWIQTKDGQCGSPLVSTRDGFIVGIHSASNFTNTNNYFTSVPKNFMELLTNQEAQQWVSGWRLNADSVLWGGHKVFMVKPEEPFQPVKEATQL [Y12K] | 0.0668 | 0.0799 | 0.0584 | – | 0.0614 | – | 0.0596 | 0.0738 | 0.091 | 0.0644 | – | – | 0.0598 | 0.0618 | 0.0552 | 0.0727 | 0.0605 | 0.0645 | –
8 | MGESLFKGPRDSNPISSSICHLTNESDGHTTSLYGIGFGPFIITNKHLFRRNNGTLVVQSLHGVFKVKDTTTLQQHLVDGRDMIIIRMPKDFPPFPQKLKFREPQREERICLVTTNFQTKSMSSMVSDTSCTFPSGDGIFWKHWIQTKDGQCGSPLVSTRDGFIVGIHSASNFTNTNNYFTSVPKNFMELLTNQEAQQWVSGWRLNADSVLWGGHKVFMVKPEEPFQPVKEATQL [Y12S] | 0.0779 | 0.0595 | 0.0637 | 0.0643 | 0.0534 | – | 0.066 | – | 0.0598 | 0.0843 | – | 0.047 | 0.0658 | 0.064 | 0.0728 | 0.0717 | 0.0638 | 0.0878 | –
9 | MGESLFKGPRDWNPISSSICHLTNESDGHTTSLYGIGFGPFIITNKHLFRRNNGTLVVQSLHGVFKVKDTTTLQQHLVDGRDMIIIRMPKDFPPFPQKLKFREPQREERICLVTTNFQTKSMSSMVSDTSCTFPSGDGIFWKHWIQTKDGQCGSPLVSTRDGFIVGIHSASNFTNTNNYFTSVPKNFMELLTNQEAQQWVSGWRLNADSVLWGGHKVFMVKPEEPFQPVKEATQL [Y12W] | 0.0581 | 0.0806 | 0.067 | 0.0597 | 0.09 | 0.0716 | 0.0577 | 0.0777 | 0.0548 | 0.0918 | 0.0511 | 0.0446 | 0.059 | 0.05 | 0.0563 | 0.0838 | 0.0528 | 0.061 | –
